# In PubChem BioAssay AID1347073 (National Center for Advancing Translational Sciences (NCATS), 2019):
# The whole screen tested about 45,000 compounds, of which about 200 (0.44%) were called active. About 7% were inconclusive and are not listed. Calls follow the shape of the dose curve; as a rule, active = well fitted activation curve with a large enough effect; inconclusive = small, poorly fitted or top-dose-only effect; inactive = no such curve, though single readings can be large or run the other way. Some of the results follow.
# Test: qHTS of TDP-43 Inhibitors: NCGC Sytravon Library Screen; also: 0% is about no effect; nearly all actives have a fitted effect of over 55% in size
# Conditions: yeast TDP-43 toxicity rescue, BacTiter-Glo growth, 24 h; series mostly up to 46.1 µM; growth rescue (activation): at the top concentration
# Summary of the method: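 TDP-43-expressing yeast, pregrown in raffinose, seeded at OD600 0.02 in galactose medium with compound for 24 hr at 30 deg C. Growth read by BacTiter-Glo luminescence, so rescue of toxicity appears as activation.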
row,SMILES,growth rescue (activation)
1,Cc1ccc(NC(=O)C(C)N2CCCC2)cc1Cl (stereo not given),inactive: -4.09%
2,Cc1cc(C)n(CC(=O)N2CCCC(N3CCN(c4ccccc4C)CC3)C2)n1 (stereo not given),inactive: -19.5%
3,O=C(NCCS(=O)c1ccc(Cl)cc1)c1cccc(Cl)c1 (stereo not given),inactive: 6.18%
4,Cc1ccnc(NC(=O)CCC(=O)N(CC(=O)NC(C)(C)C)c2ccc(F)c(Cl)c2)c1,inactive: -3.54%
5,O=C(CCOc1ccccc1)NNC(=O)c1ccccc1,inactive: -1.25%
6,O=c1nc2ccc(Cl)cn2c2ccc(S(=O)(=O)N3CCCCC3)cc12,inactive: 9.51%
7,CSc1ccc(CN(C)C(=O)C23CC4CC(CC(Cl)(C4)C2)C3)cc1,inactive: 7.14%
8,Cc1ccc(S(=O)(=O)NCC(=O)N(CC(=O)NCC2CCCO2)Cc2ccc(Cl)cc2)cc1 (stereo not given),inactive: 14%
9,CCOC(=O)Cc1[nH]nc2c1C(c1ccsc1)C(C#N)=C(N)O2 (stereo not given),inactive: 7.36%
10,O=C(COc1ccc(Cl)cc1[N+](=O)[O-])N1CCCCC1,inactive: 5.48%
11,O=C(COC(=O)c1n[nH]c(=O)c2ccccc12)Nc1ccccc1F,inactive: 17.4%
12,O=Cc1c(N2CCC3(CC2)OCCO3)nc2ccccn2c1=O,inactive: 1.38%
13,Cc1c(C(=O)N2CCOCC2)sc(NC(=O)C(C)C)c1C#N,inactive: -0.755%
14,Cc1c(C(=O)O)oc2c1C(=O)CC(C)(C)C2,inactive: 6.29%
15,CC(Cc1ccco1)NC(=O)c1cccc(S(=O)(=O)N(C)C)c1 (stereo not given),inactive: -1.84%
16,Cc1ccc(/C=N/NC(=S)NC2CCCCC2)o1,inactive: 20.2%
17,CCN(Cc1cccc(F)c1)C(=O)c1ccc2ccccc2n1,inactive: 17.3%
18,COc1ccc(Nc2nc(C)nc3c2oc2ccccc23)cc1,inactive: 26.4%
19,CS(=O)(=O)c1ccc(Cl)c(NC(=O)COC(=O)c2ccc(S(=O)(=O)N3CCCC3)cc2)c1,inactive: 8.52%
20,O=C1CN(c2ccccc2)C(=S)N1C(=O)c1ccccc1,inactive: 21.8%
21,Cc1ccc(CSCCNS(=O)(=O)c2ccc(C)cc2)cc1,inactive: 25.1%
22,Cc1ccc(NC(=O)CSc2cn[nH]n2)cc1,inactive: 5.71%
23,CC(=O)Nc1ccc(OC(=O)c2cc3cc(Br)ccc3oc2=O)cc1,inactive: 8.4%
24,CCOc1ccc(NC(=O)C2CCCN2C(=O)Oc2ccccc2)cc1 (stereo not given),inactive: -2.8%
25,O=C(O)c1ccc(N/N=C/C2=C(N3CCOCC3)C(=C\c3ccccc3)/CC2)cc1,inactive: 19.3%
26,COc1ccc(C(=O)COC(=O)C2CCN(c3ccc(C(F)(F)F)cn3)CC2)c(OC)c1,inactive: 27.9%
27,CC(C)CCN(CC(=O)NC(C)(C)C)C(=O)C(=O)Nc1ccc2c(c1)OCCO2,inactive: -5.96%
28,Cc1nn(CCC#N)c(N)c1C1(O)C(=O)Nc2c(Cl)cc(Cl)cc21 (stereo not given),inactive: 1.24%
29,O=C(COC(=O)c1cccc(NS(=O)(=O)c2ccc(F)c(F)c2)c1)NC(=O)NC1CCCCC1,inactive: -12.2%
30,CCN1CC(CN(C)Cc2nc(-c3ccc(OC)c4ccccc34)oc2C)CC1=O (stereo not given),inactive: 14.6%
